From PubChem BioAssay AID1476 (National Center for Advancing Translational Sciences (NCATS), 2009)
Hit rate of the full screen: of about 200,000 compounds, about 4,500 (2.2%) were called active. Inconclusive means that the source gave no clear call. Such entries were picked first, then a sample of the others. Calls come from the whole dose curve; as a rule, active = well fitted inhibition curve with a large enough effect; inconclusive = small, poorly fitted or top-dose-only effect, or effect the other way; inactive = flat fitted curve, though single readings scatter. A potency beside an inconclusive call is a rough fit, not a confirmed value.

target: Cruzipain (Trypanosoma cruzi) (UniProt P25779); assay: qHTS Assay for Promiscuous and Specific Inhibitors of Cruzain (without detergent); settings: purified cruzain, Z-FR-AMC fluorescence, no detergent; note: nearly all actives have a fitted effect of over 40% in size;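 for max response, negative = inhibition: plate controls were enzyme without inhibitor for no effect and buffer without enzyme for full effect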
UniProt P25779, sequence (P25779 whole entry, looked up): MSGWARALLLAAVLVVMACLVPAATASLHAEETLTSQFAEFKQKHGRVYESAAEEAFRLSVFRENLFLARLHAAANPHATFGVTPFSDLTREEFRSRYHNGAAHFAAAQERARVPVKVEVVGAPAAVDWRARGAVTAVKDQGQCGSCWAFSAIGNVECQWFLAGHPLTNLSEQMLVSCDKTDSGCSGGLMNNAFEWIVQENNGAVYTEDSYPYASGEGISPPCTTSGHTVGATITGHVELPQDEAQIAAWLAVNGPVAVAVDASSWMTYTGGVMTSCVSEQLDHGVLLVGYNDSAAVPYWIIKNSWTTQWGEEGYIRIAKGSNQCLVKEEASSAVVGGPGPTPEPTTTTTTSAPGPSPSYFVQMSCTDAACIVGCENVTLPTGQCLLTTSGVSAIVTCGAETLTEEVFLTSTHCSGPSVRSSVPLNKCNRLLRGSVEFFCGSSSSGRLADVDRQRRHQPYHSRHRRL
In short: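 Detergent-free condition (0.00005% Triton X-100) in acetate buffer pH 5.5 with DTT. 1.5 nM enzyme and compound were pre-mixed 15 min, then 2 uM Z-FR-AMC substrate added; reaction progress from fluorescence change between first and third reads (60 s).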
Potency is the fitted concentration of half-maximal effect; tags give direction and shape of the fitted curve.

SMILES | Potency | max response, negative = inhibition
COc1cc(NC(=O)CSc2nc3nc(C)c(Cc4ccccc4)c(C)n3n2)cc(OC)c1OC | inconclusive: 39.8 µM [activator, single point] | 
CCc1nnc2n1N(C(C)=O)C(c1ccc(C(C)(C)C)cc1)=C(C(C)=O)S2 | inconclusive: 39.8 µM [activator, single point] | 
O=S(=O)(c1cccc(Cl)c1)c1nnn2c1nc(NC1CCCC1)c1sccc12 |  | inactive: -6.64%
CC(C)Oc1cccc(-n2c(CCc3c[nH]c4ccc(Br)cc34)nc3ccccc3c2=O)c1 | active: 31.6 µM | 
CC(=O)C1=C(O)CC(c2ccccc2)CC1=NCCc1c(C)[nH]c2ccccc12 (stereo unspecified) | inconclusive: 39.8 µM [activator, single point] | 
CCc1nc(SCC(=O)Nc2nccs2)c2oc3ccccc3c2n1 | inconclusive: 25.1 µM [activator, single point] | 
Cc1cccc2sc(NC(=O)c3ccc(NS(=O)(=O)c4cccs4)cc3)nc12 | inconclusive: 25.1 µM [inhibitor, single point] | 
COCCCNc1ncnc2c1nnn2C |  | inactive: 3.22%
CCn1c(SCC(=O)Nc2ccc(C)c(C)c2)nnc1-c1nonc1NC(C)=O | inconclusive: 15.8 µM [activator, partial curve] | 
CCCCC(CC)Cn1c(Oc2ccccc2)nc2c1c(=O)n(C)c(=O)n2C (stereo unspecified) | inconclusive: 31.6 µM [activator, single point] | 
Cc1cccc(NC(=O)CSc2nnc(-c3cc(C)n(-c4ccccc4)c3C)o2)c1C | inconclusive: 25.1 µM [inhibitor, single point] | 
CCc1ccc(CNC(=O)c2cnc3sc(N(CC)CC)nn3c2=O)cc1 | inconclusive: 31.6 µM [activator, single point] | 
COc1cc(-c2nnc(SCC(=O)Nc3cccc(C#N)c3)o2)cc(OC)c1OC | inconclusive: 6.31 µM [activator, single point] | 
Cc1ccc(-c2nnc3ccccc3c2C(=O)Nc2cccc(C(F)(F)F)c2)cc1 | inconclusive: 12.6 µM [inhibitor, partial curve] | 
CC(C)OC(=O)c1c(NC(=O)c2cc3nc(-c4ccccc4)cc(C(F)(F)F)n3n2)sc2c1CCCC2 |  | inactive: 1.75%
CN(C)S(=O)(=O)c1cccc(NC(=S)NN=C(Cc2ccccc2)Cc2ccccc2)c1 | active: 31.6 µM | 

SMILES | Potency | max response, negative = inhibition
CCOC(=O)c1noc2nc(C)n(CC(=O)Nc3ccc(Br)cc3C)c(=O)c12 |  | inactive: 6.05%
CCOc1ccccc1N(CC)C(=O)c1cc2c(=O)n(CC)c3ccccc3c2s1 | inconclusive: 31.6 µM [activator, single point] | 
CCC(O)c1nc2ccccc2n1CCOc1cc(C)cc(C)c1 (stereo unspecified) | inconclusive: 31.6 µM [activator, single point] | 
Cc1cc(NC(=O)c2cc(-c3ccccc3)on2)no1 | inconclusive: 31.6 µM [inhibitor, single point] | 
O=C(/C=C/c1ccccc1)Nc1nc(-c2cccs2)ns1 | active: 20 µM | 
CC(=O)c1ccc(NC(=O)CN2C(=O)CCc3cc(S(=O)(=O)N4CCC(C)CC4)ccc32)cc1 | inconclusive: 39.8 µM [activator, single point] | 
COc1ccc(C2CC(c3cccs3)=NN2C(=O)COC(=O)c2cc3ccccc3cc2O)cc1OC (stereo unspecified) | active: 12.6 µM | 
Cc1nc2ccc(NC(=O)c3cccc(S(=O)(=O)N4CC(C)OC(C)C4)c3)cc2s1 (stereo unspecified) | inconclusive: 31.6 µM [activator, single point] | 
CCN(CC)C(=O)c1ccc(NC(=O)COc2ccc(-c3nn(C)c(=O)c4ccccc34)cc2)cc1 | inconclusive: 31.6 µM [activator, single point] | 
Cc1ccc(-n2c(=O)[nH]c3cc(C(=O)NCCc4ccccc4)ccc3c2=O)cc1 | active: 15.8 µM | 
CCn1c(O)c(/C=C2\C=NN=C2c2ccc(C)cc2)sc1=S | active: 12.6 µM | 
Cc1ccc2c(C)c(C(=O)NCC(c3ccc(Cl)cc3)N3CCOCC3)oc2c1 (stereo unspecified) | inconclusive: 31.6 µM [activator, single point] | 
Cc1ccc(NC(=O)NC(C)c2c(-n3cccc3)sc(C)c2C)cc1F (stereo unspecified) | inconclusive: 39.8 µM [inhibitor, single point] | 
Cc1ccc(-c2nc(S(=O)(=O)c3ccc(C)cc3)c(SCC(=O)c3ccccc3)o2)cc1 | active: 15.8 µM | 
CCN(C(=O)CSc1nc2ccccc2n1Cc1ccccc1C#N)c1ccccc1 | inconclusive: 7.94 µM [activator, single point] | 
